The whole screen tested about 48,000 compounds, of which about 1,200 (2.5%) were called active. About 2% were inconclusive and are not listed.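 The calls were made as follows: active = activation of at least 60% and not above a set upper limit (about 1 call in 100 departs from these limits); inconclusive = activation of 40% to 60%, or above that upper limit; inactive = activation under 40%.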 Some of the results follow.

The test concerns the target Probable G-protein coupled receptor 32 (Homo sapiens) (UniProt O75388). Nature of the test: qHTS for Agonists of Human Resolvin D1 Receptor DRV1. Also: 0% is about no effect. The conditions noted are these: CHO-K1 GPR32 beta-arrestin PathHunter luminescence, 90 min; at 76.9 µM; stronger effect = higher value; zero percent set by DMSO-only wells. In outline: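 PathHunter beta-arrestin recruitment in CHO-K1 cells stably expressing ProLink-tagged GPR32. Cells were exposed to compound for 90 min at 37 C, then chemiluminescence was read after 1 h detection at ambient temperature; DMSO served as basal control.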
Sequence of UniProt O75388 (O75388 whole entry, looked up): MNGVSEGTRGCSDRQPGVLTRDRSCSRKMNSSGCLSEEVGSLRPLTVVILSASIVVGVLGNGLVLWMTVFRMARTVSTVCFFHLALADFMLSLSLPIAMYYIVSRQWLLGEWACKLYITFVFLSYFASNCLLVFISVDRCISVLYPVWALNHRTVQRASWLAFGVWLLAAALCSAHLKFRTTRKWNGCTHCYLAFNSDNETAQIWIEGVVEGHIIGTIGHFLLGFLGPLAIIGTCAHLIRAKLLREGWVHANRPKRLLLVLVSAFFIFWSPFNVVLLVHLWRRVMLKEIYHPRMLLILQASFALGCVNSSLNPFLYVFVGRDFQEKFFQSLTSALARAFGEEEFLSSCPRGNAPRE
In general terms: Quantitative high-throughput screening tests each substance at several concentrations.
For the compound `CC(C)CNc1nc(NC(C)(C)C)nc(Oc2ccc(=O)n(-c3ccccc3)n2)n1`, the activation is inactive: -19.1%.
Then `COc1cccc(-c2cc(C(=O)Nc3cc(C)nn3-c3ccccc3)no2)c1`, with inactive: -3.27%; and `CCN(CC)S(=O)(=O)c1nnc(NC(=O)c2ccccc2Cl)s1`, with inactive: 28.3%; and `Cc1ccccc1NC(=O)c1c(C)oc2ccc(O)c(CN3CCCC3)c12`, with inactive: 4.32%.
In the case of `COc1cc(Cl)c(C)cc1NC(=O)Cn1ncc2c(=O)oc3ccccc3c21`, the activation was inactive: -3.26%.
The figure for `COc1cc(NC(=O)C2CCCN(S(=O)(=O)c3ccc4c(c3)CCCC(=O)N4)C2)cc(OC)c1` (configuration not stated) is inactive: -3.17%.
Then `O=c1[nH]c2ccccc2c(=O)n1CCCl`, with inactive: -3.64%; and `CCC(C(=O)OC)n1cnc2c(cnn2-c2ccc(F)cc2)c1=O` (configuration not stated), with inactive: 5.2%.
The figure for `COc1ccc(-c2nc(SCC(=O)c3ccc(OC)c(Br)c3)n[nH]2)cc1` is inactive: 2.78%; for `CCC(Sc1nc2nccnc2c(=O)n1Cc1ccc(F)cc1)C(=O)NC1CCCCC1` (configuration not stated) it is inactive: -17.9%; for `CCCC(=O)O[C@]1(C(=O)CO)CC[C@H]2[C@@H]3CCC4=CC(=O)CC[C@]4(C)[C@H]3[C@@H](O)C[C@@]21C` it is inactive: 0.756%.
Consider `CSc1ncc(Cl)c(C(=O)Nc2ccc(S(=O)(=O)N3CCCC(C)C3)cc2)n1` (configuration not stated), for which the activation was inactive: -30.5%.
For `CCOc1cccc(C2c3[nH]c4ccccc4c3CCN2C(=O)CCC2CCCC2)c1` (configuration not stated), the activation was inactive: -35.5%.
Then `CCc1cccc(NC(=O)C2CCC(CNS(=O)(=O)c3csc(C(N)=O)c3)CC2)c1` (configuration not stated), with inactive: 8.48%; and `CCc1ccc(CNC(=O)c2cnc3sc(N4CCCCC4)nn3c2=O)cc1`, with inactive: 25.1%; and `CC(C)(C)OC(=O)N1CCC(c2c(C(=O)NCc3ccco3)cnn2-c2ccccc2)CC1`, with inactive: -21.3%.
For the compound `CCOc1ccc(S(=O)(=O)c2cn(Cc3ccccc3)c3ccc(OCC)cc3c2=O)cc1`, the activation was inactive: -17.1%.
Then `CCc1ccc(S(=O)(=O)Nc2cccc(-c3ccc(N4CCC(C)CC4)nn3)c2)s1`, with inactive: 6.06%; and `Cc1cc(NC(=O)NCc2ccc3c(c2)CCN3C(=O)c2ccccc2)ccc1Br`, with inactive: -15.1%.
Then `Cc1cc(=O)n2nc(N3CCC(C(=O)NCc4ccccc4)CC3)sc2n1`, with inactive: -23.2%; and `Cc1ccc(NC(=O)Cn2cnc3nc4c(cc3c2=O)CCCC4)cc1Cl`, with inactive: -12.6%.
Then `COc1ccc(C(=O)Nc2ccc(OCc3cc(=O)n4ccsc4n3)cc2)cc1OC`, with inactive: -1.4%.
For `Cc1cccc(C(=O)NC(=O)Nc2ccc(-c3cc(C(F)(F)F)nn3-c3ccccc3)cc2)c1`, the activation is inactive: -11.6%.
Regarding `CCn1c(=O)cc(SCC(=O)NCc2ccccc2OC)c2ccccc21`, the activation was inactive: 38.3%.
Then `COc1ccc2cc(C(=O)NCc3ccc4c(c3)CCN4C(=O)c3ccccc3)[nH]c2c1`, with inactive: -3.04%; and `O=C(Cn1cc(C(=O)c2ccco2)c2ccccc21)Nc1ccccc1Cl`, with inactive: 36.9%; and `O=C(NCc1cccnc1)C(=O)NCC(c1cccnc1)N1CCN(c2ccccc2F)CC1` (configuration not stated), with inactive: 4.44%.
Then `CCOC(=O)c1sc2ccccc2c1S(=O)(=O)N1CCN(c2cccc(C)c2C)CC1`, with inactive: -5.94%.
`CCOC(=O)c1sc2ccccc2c1S(=O)(=O)N1CCN(c2cccc(OC)c2)CC1`: the activation was inactive: -15.5%.
Then `Cc1cc(C)c2c(=O)cc(C(=O)Nc3ccc(S(=O)(=O)N(C)Cc4ccccc4)cc3)oc2c1`, with inactive: -5.15%.
Then `O=C(C1CCN(S(=O)(=O)c2cccc3nonc23)CC1)N1CCN(c2ccccc2F)CC1`, with inactive: 20.1%; and `Cc1cccc(N2CC(C)Cn3c2nc2c3c(=O)n(CC(=O)O)c(=O)n2C)c1` (configuration not stated), with inactive: -1.63%; and `Cc1ccc(-n2nc(C)c3c(C(=O)NCc4ccc(F)cc4)cc(C)nc32)cc1`, with inactive: -10.2%.
Consider `O=C(Nc1ccc(F)cc1F)c1cc2c(=O)n3ccccc3nc2s1`, for which the activation was inactive: 15.1%.
The figure for `CCOc1cc(CNC(=O)c2ccc3c(c2)N(C)C(=O)C2CCCCN32)cc(OCC)c1OCC` (configuration not stated) is inactive: -9.55%; for `CCc1cccc(NC(=O)CCc2nc3cccnc3n2-c2ccccc2)c1` it is inactive: 6.73%.
As for `COCCNC(=O)c1cccc(Nc2nc3ccccc3n3nnnc23)c1`, the activation was inactive: 9.37%.
The figure for `CSc1ccc(CCNC(=O)c2ccc(CS(=O)(=O)c3ccc(Br)cc3)o2)cc1` is inactive: 12.6%; for `CCOC(=O)N1CCc2c(sc(NCc3ccc(N(C)C)cc3)c2C(=O)Nc2ccc(OC)cc2)C1` it is inactive: 7.63%.
Then `COc1ccc(NC(=O)CSc2nc(-c3cccs3)cc(C(F)(F)F)c2C#N)cc1`, with inactive: 5.03%; and `Cc1c(Cl)cccc1N1C(N)=C(C#N)C(c2cc(CN3CCOCC3)cs2)C2=C1CCCC2=O` (configuration not stated), with inactive: -16.7%.
The figure for `O=c1c2sc3ccccc3c2n(Cc2cccc(C(F)(F)F)c2)c(=O)n1Cc1ccccc1` is inactive: -8.79%.
With `COc1ccc(NC(=O)CCc2c(C)nc3c(c2C)c(=O)n(C)c(=O)n3C)cc1OC`, the activation is inactive: -7.37%.
The figure for `O=C1N(Cc2cccc(C(F)(F)F)c2)c2ccccc2S(=O)(=O)N1c1cccc(Cl)c1` is inactive: -18.5%; for `CCN(CC)C(=O)CSc1nc2cc3c(cc2c(=O)n1CCCCCC(=O)NCCc1ccc(OC)c(OC)c1)OCO3` it is inactive: -12.7%; for `N#Cc1c(C(F)(F)F)cc(-c2cccs2)nc1SCC(=O)Nc1ccc(F)cc1` it is inactive: 40.8%.
Then `Cc1cc(F)ccc1NC(=O)CN(C)S(=O)(=O)c1ccc(C(=O)N2CCOCC2)s1`, with inactive: -19.2%; and `COCCNC(=O)CCc1c(C)nc2c(c(C)nn2-c2ccc(C)cc2)c1C`, with inactive: -23.9%; and `CCOc1ccc(NC(=O)c2c(NCc3sccc3C)sc3c2CCCCC3)cc1`, with inactive: -15.2%.
The figure for `COc1ccc(CNC(=O)c2ccc3c(c2)N(Cc2ccccc2F)C(=O)c2ccccc2S3(=O)=O)cc1` is inactive: -0.45%; for `CCCN(CCC)c1nc(-c2ccccc2F)nc2ccccc12` it is inactive: 47.6%; for `COc1ccc(OCc2ccc(-c3nc(C#N)c(N4CCN(c5cccc(Cl)c5)CC4)o3)o2)cc1` it is inactive: 0.778%.
Regarding `O=C(COc1ccc([N+](=O)[O-])cc1)Nc1cccc2cccnc12`, the activation was inactive: 27.7%.
Then `CCc1ccccc1NC(=O)CSC1=Nc2ccccc2C2=NC(Cc3ccccc3)C(=O)N12` (configuration not stated), with inactive: -19.2%.
Regarding `O=C(CSc1nc2c([nH]c3ccccc32)c(=O)n1-c1ccc(F)cc1)NC1CCCCC1`, the activation is inactive: -29.9%.
Turning to `Cc1ccc(-c2nc3nc(C)cc(C)n3c2Nc2ccc3c(c2)OCCO3)cc1`, the activation is inactive: -20.7%.
The figure for `CC(=O)N1CCc2cc(Br)cc(S(=O)(=O)N3CCC(C)CC3)c21` is inactive: -2.68%; for `CC(C)c1cnc2c(c1SCc1cccc(F)c1)c(=O)n(C)c(=O)n2C` it is inactive: -34.7%; for `CC(=O)c1ccc(NC(=O)c2nc(-c3ccccc3)n(-c3ccc(Cl)cc3)n2)cc1` it is inactive: -15.8%.
Then `CCOc1ccc(NC(=O)Cn2c(=O)n(Cc3nc(-c4ccccc4)no3)c(=O)c3cc4c(cc32)OCO4)cc1`, with inactive: -10.9%; and `Cc1nc2nc(NC(=O)C(C)(C)C)[nH]n2c(=O)c1Cc1ccccc1`, with inactive: 13.5%.
The figure for `CCOC(=O)c1cc2c(=O)n3ccccc3nc2n(CCOC)c1=NC(=O)C(C)(C)Oc1ccc(Cl)cc1` is inactive: -29.3%; for `O=c1[nH]c(=O)n([C@H]2C[C@H](O)[C@@H](CO)O2)cc1C(F)(F)F` it is inactive: -55.6%; for `Cc1ccc(Cn2ccn(CC(=O)Nc3c(C)cc(C)cc3C)c(=O)c2=O)cc1` it is inactive: -0.641%.
Take `CCCCN(C)CCCNC(=O)Cn1ncc2c3ccccc3n(Cc3ccccc3F)c2c1=O`: the activation was inactive: -6.68%.
The figure for `COc1ccc(NC(=O)Cn2c(=O)oc3cc(S(=O)(=O)NCc4ccccc4)ccc32)c(OC)c1` is inactive: 3.37%; for `Cc1noc(-c2ccc(N3CCC(C)CC3)c([N+](=O)[O-])c2)n1` it is inactive: 6.98%; for `COc1cc(NC(=O)C2CCN(S(=O)(=O)c3ccc4c(c3)oc(=O)n4C)CC2)cc(OC)c1` it is inactive: 22.7%.
The figure for `O=C(CSC1=Nc2ccccc2C2=NC(Cc3ccccc3)C(=O)N12)Nc1ccccc1C(F)(F)F` (configuration not stated) is inactive: -18.2%; for `COc1ccc(NS(=O)(=O)c2cc3c(cc2C)NC(=O)CO3)c(OC)c1` it is inactive: -7.27%.
Then `Cc1cccc(CNC(=O)c2oc3c(c2C)-c2nn(Cc4cccc(Cl)c4)cc2CC3)c1`, with inactive: -9.27%; and `Cc1cn2c(=O)cc(COc3ccccc3NC(=O)c3ccc(C(C)(C)C)cc3)nc2s1`, with inactive: 20.9%.
For `COC(=O)c1ccc2c(c1)N(CC(=O)Nc1cccc(Cl)c1C)C(=O)c1ccccc1S2`, the activation was inactive: -3.16%.
Take `CC(C)NC(=O)Cn1c(=O)nc(-c2ccccc2F)c2cc(Cl)ccc21`: the activation is inactive: -13.3%.
For the compound `CN(C)c1nc(N)c(C(=O)N=C(N)N)nc1Cl`, the activation is inactive: -0.54%.
The figure for `CCOc1ccc(CN2C(=O)c3ccccc3Sc3ccc(C(=O)NC)cc32)cc1` is inactive: 6.36%; for `Cc1ccc(C(c2ccccc2)c2c(C)[nH]c3ccccc23)s1` (configuration not stated) it is inactive: -5.38%.
In the case of `Cc1ccc2nc(-c3c[nH]c4ccccc34)c(Nc3ccccc3C)n2c1`, the activation is inactive: -8.84%.
The figure for `COc1cccc(NC(=O)Cn2c(=O)n(CC(=O)NCc3ccc(C)cc3)c(=O)c3sccc32)c1` is inactive: -9.77%; for `Nc1nnc(SCC(=O)Nc2ccccc2)s1` it is inactive: 11.2%.
Then `Cc1ccc(/C=C/C(=O)Nc2ccc(S(N)(=O)=O)cc2)o1`, with inactive: 12.3%; and `Cc1cc(C)c(NC(=O)CN2C(=O)c3cccnc3Oc3ccc(C)cc32)c(C)c1`, with inactive: -23.7%.
